Source: publication PMC4336329 (PLoS ONE, 2015)
The campaign covered roughly 310,000 compounds. About 2,200 (0.71%) showed an effect of 50% or more. Effects have a minus sign here. The list shows a part of the results.

These compounds were tested against human ether-à-go-go-related gene (hERG) potassium channel (human, UniProt Q12809) (assay: primary screen, population patch clamp on CHO cells stably expressing hERG).
human ether-à-go-go-related gene (hERG) potassium channel, sequence (Q12809 whole entry, looked up): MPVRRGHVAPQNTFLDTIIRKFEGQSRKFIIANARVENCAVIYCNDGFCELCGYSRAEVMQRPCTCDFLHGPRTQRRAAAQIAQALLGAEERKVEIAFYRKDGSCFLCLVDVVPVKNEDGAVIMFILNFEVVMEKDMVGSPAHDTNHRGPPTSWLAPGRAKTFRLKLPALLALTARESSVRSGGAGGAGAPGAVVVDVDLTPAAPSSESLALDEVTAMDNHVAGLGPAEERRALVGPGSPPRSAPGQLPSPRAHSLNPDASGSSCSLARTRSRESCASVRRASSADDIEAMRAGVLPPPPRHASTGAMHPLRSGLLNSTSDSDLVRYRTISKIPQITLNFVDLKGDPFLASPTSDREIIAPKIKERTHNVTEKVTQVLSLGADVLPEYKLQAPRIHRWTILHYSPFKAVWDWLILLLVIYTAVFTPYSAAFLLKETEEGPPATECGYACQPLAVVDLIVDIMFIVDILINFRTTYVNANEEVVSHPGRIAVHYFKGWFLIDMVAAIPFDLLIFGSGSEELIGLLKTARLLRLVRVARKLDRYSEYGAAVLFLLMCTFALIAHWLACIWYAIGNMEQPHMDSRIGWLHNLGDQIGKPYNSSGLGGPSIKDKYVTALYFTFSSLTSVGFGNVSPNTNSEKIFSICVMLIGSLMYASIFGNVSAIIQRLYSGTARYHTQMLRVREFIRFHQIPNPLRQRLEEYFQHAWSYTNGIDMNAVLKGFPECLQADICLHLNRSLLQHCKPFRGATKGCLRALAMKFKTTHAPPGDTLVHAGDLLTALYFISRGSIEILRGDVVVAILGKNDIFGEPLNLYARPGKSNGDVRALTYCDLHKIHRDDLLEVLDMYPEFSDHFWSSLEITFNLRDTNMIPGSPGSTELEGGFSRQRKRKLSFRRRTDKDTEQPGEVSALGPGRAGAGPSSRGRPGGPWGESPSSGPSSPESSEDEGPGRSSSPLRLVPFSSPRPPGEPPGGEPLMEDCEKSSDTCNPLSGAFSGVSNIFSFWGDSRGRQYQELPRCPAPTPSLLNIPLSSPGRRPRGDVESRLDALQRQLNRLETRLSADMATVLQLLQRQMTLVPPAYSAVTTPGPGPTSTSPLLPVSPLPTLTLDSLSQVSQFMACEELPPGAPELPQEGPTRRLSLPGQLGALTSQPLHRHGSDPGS

| Compound | hERG current change (%, negative = inhibition) at 1uM [%] |
| --- | --- |
| COc1ccc(NC(=O)CCNC(=O)c2ccco2)cc1S(=O)(=O)N(C)C | 17.9 |
| O=C(CCCCCNS(=O)(=O)c1ccc(Br)cc1)NCCN1CCOCC1 | -7.77 |
| Cc1[nH]c2ccccc2c1/C=N/NC(=O)Cc1cccs1 | 10.9 |
| CCNc1ccc(C(=O)OCC(=O)NCCN2C(=O)CSC2=O)cc1[N+](=O)[O-] | -0.485 |
| Cc1ccc(S(=O)(=O)c2nnn3c2nc(N2CCOCC2)c2ccccc23)c(C)c1 | 4.67 |
| O=C1NC(c2cn(-c3ccccc3)nc2-c2cccs2)C(C(=O)c2cccnc2)C(O)(C(F)(F)F)N1 (centres unmarked) | 9.86 |
| Cc1ccccc1CS(=O)(=O)CCC(=O)N1CCN(c2ccc(N3CCOCC3)nn2)CC1 | 6.66 |
| COc1ccc(Cl)cc1NC(=O)COC(=O)CNC(=O)C1CCCCC1 | 11.9 |
| CCCC(c1nnnn1CCc1ccccc1)N1CCC(C(N)=O)CC1 (centres unmarked) | 11.5 |
| COc1ccc(-n2c(=S)[nH]c3cc(C(=O)NCCCN4CCCC4=O)ccc3c2=O)cc1 | 13.9 |
| N#CSCC(=O)N1c2ccccc2CCc2ccccc21 | 1.98 |
| O=C(Nc1ccc(Cl)cc1)c1cc(-c2cccs2)on1 | 10.7 |
| CCOC(=O)c1ccc(Oc2nc(N(C)C)nc(N3CCOCC3)n2)cc1 | 20.8 |
| O=C(c1ccc(N2CCOCC2)c([N+](=O)[O-])c1)N1CCN(Cc2ccccc2)CC1 | -33.7 |
| CN1/C(=C/C=C(C#N)C#N)C=Cc2ccccc21 | 12.8 |
| O=[N+]([O-])c1ccc(/C=N/NC2=NS(=O)(=O)c3ccccc32)cc1 | 11.9 |
| CCOc1ccc2nc(NC(=O)CN3C(=O)NC4(CCCC4)C3=O)sc2c1 | -4.2 |
| CCOc1ccc(NC(=O)CCC(=O)NNC(=O)COc2ccc(C)cc2)cc1 | 6.23 |
| COc1ccccc1NS(=O)(=O)c1cc2c3c(c1)CC(=O)N3CCC2 | 6.48 |

| Compound | hERG current change (%, negative = inhibition) at 1uM [%] |
| --- | --- |
| O=C(Nc1ncc(Cc2cccc(Cl)c2)s1)c1ccc([N+](=O)[O-])cc1 | 10.9 |
| CNC(=S)Nc1ccc(Cc2ccncc2)cc1 | 10.7 |
| COc1ccc(C(=O)O/N=C(\N)c2cccc(C)c2)cc1OC | 11.9 |
| Cc1ccc(-c2nc3cc(N)ccc3o2)cc1Br | 13.7 |
| Nc1c2c(nn1-c1ccc(F)cc1)CSC2 | 8.04 |
| CCCCC(=O)Nc1nc2ccc(C(=O)OC)cc2s1 | 15.9 |
| O=C(N/N=C/C=C/c1ccc(Br)cc1)C(O)c1ccccc1 (centres unmarked) | 9.32 |
| Cc1c(C(=O)NC2CCCCC2)oc2c1C(=O)CC(C)(C)C2 | 15.9 |
| O=c1oc2cc(O)ccc2c2oc3cc(O)ccc3c12 | 7.12 |
| O=C(COc1ccc(Br)cc1)N1CCC(c2ccccc2)C1 (centres unmarked) | 3.98 |
| CC(=O)Nc1ccccc1OP1(=O)COc2ccccc2OC1 | 7.81 |
| O=C(O)CNC(=S)N(Cc1ccccc1Cl)C1CCCCC1 | 11.9 |
| Cc1ccc(Cl)cc1NC(=O)CCCN1C(=O)c2cccnc2C1=O | 1.06 |
| COc1cc(-c2nc3cnccc3n2C)cc(OC)c1OC | 2.44 |
| Cc1cc(C(=O)N2CCCc3ccccc32)no1 | -1.99 |
| COc1ccc(C2N(c3ccc(C)cc3)CCN2c2ccc(C)cc2)cc1O | 13.4 |
| CC(C)(C)c1ccc(S(=O)(=O)Nc2cccnc2)cc1 | -3.24 |
| Cc1cccc2sc(N(CCCN(C)C)C(=O)c3ccc(Cl)s3)nc12.Cl | 0.715 |
| COc1cc(C(=O)OCC(C)=O)cc(NC(=O)c2ccco2)c1OC | 10.2 |

| Compound | hERG current change (%, negative = inhibition) at 1uM [%] |
| --- | --- |
| Cc1nc(N2CCN(C(=O)c3cnccn3)CC2)c2c3c(sc2n1)CC(C(C)(C)C)CC3 (centres unmarked) | 12.2 |
| O=C(NC1CCCCC1)c1ccc([N+](=O)[O-])o1 | 13.6 |
| CCn1c(COc2ccc(=O)n(-c3ccccc3)n2)nnc1SCc1ccccc1 | -1.03 |
| CSc1ccc(C(=O)C2CCCN(C(=O)c3ccc4c(c3)no[n+]4[O-])C2)cc1 (centres unmarked) | 2.57 |
| CCCc1c(C(=O)N/N=C/c2ccc(C)s2)nnn1-c1nonc1N | 16.5 |
| O=C(NC(=S)N1CCOCC1)c1cn(-c2ccccc2)nc1-c1ccc(F)cc1 | 9.97 |
| O=C(O)CSC(C(=O)Nc1ccc(C(F)(F)F)cc1)c1ccccc1 (centres unmarked) | 2.86 |
| O=c1[nH]c(N2CCc3ccccc3C2)nc2c1CCC2 | 7.51 |
| CCC(C(=O)OC(C)C(=O)Nc1ccc(Cl)cn1)c1ccccc1 (centres unmarked) | 8.79 |
| CC(=O)c1ccc(NC(=O)C2CCN(S(=O)(=O)c3cccnc3)CC2)cc1 | 9.88 |
| Cl.OC(COc1cccc2ccccc12)CN1CCN(c2ccccn2)CC1 (centres unmarked) | 4.49 |
| COCCN1C=C(C(=O)OC)C(c2ccccc2C(F)(F)F)C(C(=O)OC)=C1 | -2.17 |
| O=C(O)c1ccc(/C=N/Nc2nc(N3CCCCC3)nc(N3CCCCC3)n2)cc1 | 8.75 |
| CCOCCc1nnc(NC(=O)c2ccc(OC)c(OC)c2)s1 | 2.98 |
| COc1ccc(/C=N/NC(=O)c2nnn(-c3nonc3N)c2-c2cccs2)cc1OC | 4.03 |
| CCOc1cccc2sc(=NC(=O)c3ccc(S(=O)(=O)N4CCOCC4)cc3)n(C)c12 | 5.51 |
| CCn1c(=O)c2c(nc(SCC(=O)NC3CCCC3)n2C)n(C)c1=O | 10.7 |
| Cc1ccc2c(c1)nnn2C1CCN(CC(=O)c2ccc(Cl)cc2)CC1 | -6.32 |
